Measured values from PubChem BioAssay AID2147 (National Center for Advancing Translational Sciences (NCATS), 2009).
The whole screen tested about 230,000 compounds, of which about 3,600 (1.6%) were called active. Inconclusive results, whose numbers are uncertain, are shown with a selection of clear calls. The call rests on the fitted dose curve; in most records, active means well fitted inhibition curve with a large enough effect (not every such curve was filed as active); inconclusive means small, poorly fitted or top-dose-only effect, or another doubt; inactive means no such curve, though single readings can be large or run the other way. Where the call is inconclusive, the potency comes from a doubtful curve fit.

target: Lysine-specific demethylase 4E (Homo sapiens) (UniProt B2RXH2); test: qHTS Assay for Inhibitors of Human Jumonji Domain Containing 2E (JMJD2E); settings: JMJD2E catalytic domain, FDH-coupled NADH fluorescence (FDH is formaldehyde dehydrogenase); series mostly up to 57.1 µM; activity change, negative = inhibition: at the top concentration
UniProt B2RXH2, sequence (B2RXH2 whole entry, looked up, the tested form may be a part): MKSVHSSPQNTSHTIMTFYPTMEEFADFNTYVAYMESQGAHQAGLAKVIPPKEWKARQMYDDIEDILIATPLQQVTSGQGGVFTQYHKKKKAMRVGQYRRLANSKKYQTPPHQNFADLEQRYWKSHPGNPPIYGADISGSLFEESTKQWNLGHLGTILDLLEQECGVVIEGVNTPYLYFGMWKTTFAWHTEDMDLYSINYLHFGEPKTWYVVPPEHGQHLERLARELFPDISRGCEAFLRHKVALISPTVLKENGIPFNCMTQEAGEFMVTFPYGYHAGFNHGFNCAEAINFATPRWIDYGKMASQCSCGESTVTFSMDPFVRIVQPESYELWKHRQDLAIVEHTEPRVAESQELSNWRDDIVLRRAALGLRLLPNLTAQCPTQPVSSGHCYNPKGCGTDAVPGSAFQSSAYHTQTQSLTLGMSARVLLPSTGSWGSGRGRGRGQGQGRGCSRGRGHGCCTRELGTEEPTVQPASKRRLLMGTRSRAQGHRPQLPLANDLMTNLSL
Further: nearly all actives have a fitted effect of over 50% in size.
Potency means the concentration at half of the fitted maximal effect; tags describe the fitted curve by direction and shape.
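Wherever activity change, negative = inhibition is given: 0% = wells with enzyme and -100% = buffer wells without enzyme.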

Structure (SMILES) | activity change, negative = inhibition | Potency
CCCCNC(=O)c1ccccc1NC(=O)c1ccc2c(c1)OCO2 | inactive: 13.3% | –
Cc1ccc2oc(=O)c3c4cc(O)c(O)cc4oc3c2c1 | – | inconclusive: 35.5 µM [inhibitor, single point]
COc1ccc(C2c3ccc(O)cc3Oc3ncn4nc(-c5ccccn5)nc4c32)cc1OC (stereo not drawn) | – | inconclusive: 28.2 µM [inhibitor, single point]
CSC1=N/C(=C\c2ccccc2Cl)C(=O)N1N(C)C | inactive: -0.94% | –
Cc1ccc(NC(=O)Cn2sc3nc(C)cc(C)c3c2=O)c(Cl)c1 | – | inconclusive: 31.6 µM [inhibitor, single point]
C/C=C(/C)C(=O)O[C@@H]1[C@H](OC(=O)C=C(C)C)c2c(ccc3ccc(=O)oc23)OC1(C)C | – | inconclusive: 39.8 µM [inhibitor, single point]
COc1ccccc1N1C[C@@H]2C[C@@H](c3ccco3)N3CCC[C@@]23C1=O | inactive: -0.158% | –
O=C(NCCSc1ccccc1)c1ccccc1Cl | inactive: -5.41% | –
Cc1ccc(C(=O)COC(=O)CNC(=O)c2ccco2)cc1 | inactive: 1.67% | –
Cc1ccc(-c2cc(C(=O)Nc3nn[nH]n3)c3ccccc3n2)c(C)c1 | – | inconclusive: 31.6 µM [inhibitor, single point]
C=C(C)C1CCC(C)=C1CC(C)(C)/C=N\n1cnnc1 (stereo not drawn) | inactive: 1.52% | –
Cc1cccc(NC(=O)CSc2nc3[nH]ncc3c(=O)n2-c2ccccc2)c1 | inactive: -14.5% | –
COc1ccc(-c2c3c(=O)n(C)c(=O)n(C)c3cn2-c2ccccc2)cc1 | – | inconclusive: 20 µM [inhibitor, single point]
FC(F)(F)c1cc(NC(=S)Nc2ccc3cc4ccccc4cc3c2)cc(C(F)(F)F)c1 | – | inconclusive: 3.55 µM [inhibitor, partial curve]
CCN1CCc2c(sc(NC(=O)Nc3ccc(Cl)c(Cl)c3)c2C(N)=O)C1 | – | inconclusive: 28.2 µM [inhibitor, single point]
CCCc1cc(=S)n2c([nH]c3ccccc32)c1C#N | – | inconclusive: 28.2 µM [inhibitor, partial curve]
Cc1cc(NC(=O)c2cc([N+](=O)[O-])cc([N+](=O)[O-])c2)no1 | inactive: -11.3% | –
Cc1ccccc1-n1c(SCC(=O)N(C)C2CCS(=O)(=O)C2)nnc1-c1ccncc1 (stereo not drawn) | – | inconclusive: 25.1 µM [inhibitor, partial curve]
COc1ccc(CN2CCN(c3cc(C)nc4c5c(C)cc(C)nc5nn34)CC2)cc1F | – | inconclusive: 14.1 µM [inhibitor, partial curve]
CC(=O)Nc1ccc(S(=O)(=O)NCc2ccncc2)cc1 | inactive: -5.09% | –
O=C(CCC(=O)N(CC(=O)NC1CCCC1)C1CCCCC1)Nc1ccccn1 | inactive: -11.4% | –
Oc1ccc(-c2cn3c(n2)SCC3)cc1 | inactive: -2.36% | –
CN(C)CCCn1cc(C2=C(c3c[nH]c4ccccc34)C(=O)NC2=O)c2ccccc21 | inactive: -16.1% | –
COc1ccc2c(CC(=O)Nc3c(C)n(C)n(-c4ccccc4)c3=O)coc2c1 | – | inconclusive: 35.5 µM [inhibitor, single point]

Structure (SMILES) | activity change, negative = inhibition | Potency
O=C(CCCN1CCC(O)(c2cccc(C(F)(F)F)c2)CC1)c1ccc(F)cc1 | – | inconclusive: 6.31 µM [inhibitor, single point]
Cc1ccc(S(=O)(=O)Nc2ccc3nc(-c4cccn4C)[nH]c3c2)cc1 | – | inconclusive: 39.8 µM [inhibitor, single point]
COc1cccc(C2c3c(oc4cc(C)c(C)cc4c3=O)C(=O)N2CCCN(C)C)c1 (stereo not drawn) | inactive: -22.9% | –
COc1cccc(-c2nc(CCl)cs2)c1OC | – | inconclusive: 31.6 µM [inhibitor, partial curve]
O=C(O)[C@H]1CN[C@H](C(=O)O)C1 | inactive: -22% | –
COc1cc2c(cc1NC(=S)Nc1ccccc1C)oc1ccccc12 | – | inconclusive: 25.1 µM [inhibitor, partial curve]
O=C(O)CCC(=O)Nc1nc2nccc(-c3ccccc3)n2n1 | – | inconclusive: 14.1 µM [inhibitor, partial curve]
COc1ccc(S(=O)(=O)Nc2ccccc2C(=O)NC(C)(C)C)cc1OC | inactive: -11.4% | –
O=C(Nc1ccc(O)c(C(=O)O)c1)c1ccc2c(c1)C(=O)N(CC1CCCO1)C2=O (stereo not drawn) | inactive: 2.06% | –
COc1cc(OC)cc(C(=O)NCCN2CCOCC2)c1 | – | inconclusive: 39.8 µM [inhibitor, single point]
Cc1nn(Cc2ccccc2Cl)c2sc(C(=O)NCc3ccc4c(c3)OCO4)cc12 | – | inconclusive: 20 µM [inhibitor, partial curve]
COc1ccc(N/C=C\C(=O)c2ccc(C)cc2)cc1OC | inactive: -4.52% | –
CN1C2C=C3C(C#N)=C(N)C(C#N)(C#N)[C@@H](c4cccc(F)c4)[C@@H]3C1CC2 (stereo partly drawn) | – | inconclusive: 35.5 µM [inhibitor, partial curve]
Cc1ccc(CSC2=Nc3ccccc3C3=NC(CC(=O)NCc4ccco4)C(=O)N23)cc1 (stereo not drawn) | – | inconclusive: 31.6 µM [inhibitor, partial curve]
COc1ccc(NC(=O)c2ccc3nc(-c4ccccc4)c(-c4ccccc4)nc3c2)c(OC)c1 | – | inconclusive: 39.8 µM [inhibitor, single point]
CCSc1ncc(/C=N/Nc2ccc(Cl)cc2)n1C | – | active: 17.8 µM
CC(=O)NCC(=O)N1CCCC(C(=O)c2ccc3c4c(cccc24)CC3)C1 (stereo not drawn) | – | inconclusive: 31.6 µM [inhibitor, partial curve]
COc1cccc(/C=N/NC(=O)CSc2nnc(C)n2-c2ccccc2)c1O | – | active: 28.2 µM
Cc1ccc(NCN2C(=O)C(=O)c3ccccc32)nc1 | inactive: 5.14% | –
COc1ccc(OC)c(C2SCCN2S(C)(=O)=O)c1 (stereo not drawn) | inactive: 4.45% | –
Cc1nc2cc(NC(=O)NC(C)(C)C)ccc2n1C | – | inconclusive: 8.91 µM [inhibitor, partial curve]
CC(C)C(=O)N(c1ccc2oc(=O)sc2c1)S(=O)(=O)c1ccccc1 | inactive: -17.3% | –
Cc1ccc2cc(C(c3nnnn3C(C)(C)C)N3CCCC3)c(=O)[nH]c2c1C (stereo not drawn) | – | inconclusive: 20 µM [inhibitor, partial curve]
CCOC(=O)C1=C(C)NC(=S)NC1c1ccsc1 (stereo not drawn) | inactive: -12.8% | –
